This note sets out measurements from PMC4336329 (PLoS ONE, 2015).

Screen size: about 310,000 compounds; about 2,200 (0.71%) showed an effect of 50% or more. Effects have a minus sign here. Some of the results follow.

For the test, the target named is human ether-à-go-go-related gene (hERG) potassium channel (human, UniProt Q12809). Kind of test: primary screen, population patch clamp on CHO cells stably expressing hERG.
Sequence of human ether-à-go-go-related gene (hERG) potassium channel (Q12809 whole entry, looked up): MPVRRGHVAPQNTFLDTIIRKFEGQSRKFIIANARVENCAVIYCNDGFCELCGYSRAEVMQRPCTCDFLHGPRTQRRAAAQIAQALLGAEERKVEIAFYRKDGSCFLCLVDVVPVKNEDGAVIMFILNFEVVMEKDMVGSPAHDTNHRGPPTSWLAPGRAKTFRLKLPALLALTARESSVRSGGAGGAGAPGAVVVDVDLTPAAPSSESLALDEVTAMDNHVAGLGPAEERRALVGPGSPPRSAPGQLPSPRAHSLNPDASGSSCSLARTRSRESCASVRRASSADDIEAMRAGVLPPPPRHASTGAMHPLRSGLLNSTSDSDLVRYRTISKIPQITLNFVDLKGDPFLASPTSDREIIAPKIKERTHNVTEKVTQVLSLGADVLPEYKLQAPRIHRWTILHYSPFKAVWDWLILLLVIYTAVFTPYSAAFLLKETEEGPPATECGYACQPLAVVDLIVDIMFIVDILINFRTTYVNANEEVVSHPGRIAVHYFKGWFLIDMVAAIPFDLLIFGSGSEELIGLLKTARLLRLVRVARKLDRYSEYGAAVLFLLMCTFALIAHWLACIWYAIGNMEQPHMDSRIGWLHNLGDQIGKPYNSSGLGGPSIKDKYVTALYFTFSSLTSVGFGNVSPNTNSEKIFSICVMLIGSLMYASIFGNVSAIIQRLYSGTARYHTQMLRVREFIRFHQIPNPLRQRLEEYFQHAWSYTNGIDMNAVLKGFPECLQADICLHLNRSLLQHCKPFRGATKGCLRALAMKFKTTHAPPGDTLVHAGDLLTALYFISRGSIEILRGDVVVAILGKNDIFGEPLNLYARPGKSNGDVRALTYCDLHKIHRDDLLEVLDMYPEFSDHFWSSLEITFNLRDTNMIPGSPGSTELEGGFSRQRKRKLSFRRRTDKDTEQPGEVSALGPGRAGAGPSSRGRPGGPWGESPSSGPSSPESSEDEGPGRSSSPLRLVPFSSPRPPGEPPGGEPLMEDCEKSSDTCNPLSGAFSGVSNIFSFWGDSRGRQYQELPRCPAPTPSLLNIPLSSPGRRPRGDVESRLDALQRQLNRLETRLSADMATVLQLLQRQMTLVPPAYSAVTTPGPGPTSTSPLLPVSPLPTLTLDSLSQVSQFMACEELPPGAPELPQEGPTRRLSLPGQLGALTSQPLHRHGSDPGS
For `Oc1ccc(N=Cc2ccc(O)c(O)c2)cc1`, the “hERG current change (%, negative = inhibition) at 1uM” value turned out to be 5.6%.
The figure for `CS(=O)(=O)N1CCN(c2ccc(NC(=O)COc3ccccc3[N+](=O)[O-])cc2)CC1` is 10.3%.
The figure for `O=C(CSC1=NS(=O)(=O)c2ccccc2N1)NCCc1ccccc1` is 4.74%.
For `COc1ccc(NS(=O)(=O)c2ccc3oc(=S)[nH]c3c2)cc1`, the “hERG current change (%, negative = inhibition) at 1uM” value is on record as 17.9%.
In the case of `CC(C)(C)C1(O)CC(C(F)(F)F)=NN1C(=O)CCCc1ccccc1` (centres unmarked), the “hERG current change (%, negative = inhibition) at 1uM” value worked out at 3.57%.
The same measure for `COC(=O)CSC1=C(C#N)C(=O)NC(c2ccccc2)S1` (centres unmarked): 12.1%; for `COc1ccc(/C(O)=C2/C(=O)C(=O)N(c3ncccn3)C2c2ccc(F)cc2)cc1` (centres unmarked): 8.4%; for `COc1ccc(OC)c(-c2csc(NC(=O)CSc3ccc(Br)cc3)n2)c1`: 16.3%.
In the case of `COc1cc(NC(=O)c2ccccc2)c(OC)cc1NC(=O)CSc1[nH]c(=O)cc(C)c1C#N`, the “hERG current change (%, negative = inhibition) at 1uM” value amounted to 10.7%.
The figure for `CNc1ccc(Br)cc(C(=O)/C=C/c2cccc(OC)c2)c1=O` is 8.33%; for `O=C(c1ccc(-n2cccc2)cc1)N1CCN(Cc2ccccc2)CC1` it is -59.9%.
For `Cc1ccc(SCC(=O)OCC(=O)NCC2CCCCC2)cc1C`, the “hERG current change (%, negative = inhibition) at 1uM” value turned out to be 13.1%.
The same measure for `CCCCOC(=O)CSc1nc(N)c(C#N)c(-c2ccc(OC)cc2)c1C#N`: 9.25%.
The figure for `COc1ccc2c(c1)CCCC21NC(=O)N(CC(N)=O)C1=O` (centres unmarked) is -0.975%; for `CCCCN1CC(=O)N2[C@H]3c4ccccc4OC[C@@H]3[C@H](c3ccccc3)[C@]2(C)C1=O` it is 9.26%.
As to `Clc1ccc(CSc2nnc3c(n2)[nH]c2ccccc23)cc1`, the “hERG current change (%, negative = inhibition) at 1uM” value is on record as -12.4%.
In the case of `O=C(O)c1ccc(Cn2nnc3sc4c(c3c2=O)CCCC4)cc1`, the “hERG current change (%, negative = inhibition) at 1uM” value was 18.1%.
The same measure for `O=C(NC1=NCCCCC1)c1cccc2ccccc12`: 5.45%; for `CCCCN(C(=O)c1ccc([N+](=O)[O-])s1)c1c(N)n(CCCC)c(=O)[nH]c1=O`: 11.3%; for `Cn1nnnc1SCC(=O)c1cccs1`: 9.41%.
The figure for `COc1ccc(CN2CCC(Cc3ccccc3)CC2)c(C)c1C` is 9.37%.
For the compound `CCCc1c(C)nc(N2CCN(c3ccccc3F)CC2)[nH]c1=O`, the “hERG current change (%, negative = inhibition) at 1uM” value worked out at 12.3%.
The same measure for `Cc1cccn2c(=O)c(C=O)c(Sc3ncccn3)nc12`: 15.9%; for `COc1ccccc1NC=C1C(=O)OC(C)(C)OC1=O`: -19.6%; for `O=C1C2CCCN2C(=O)N1CCCCN1CCN(c2ccccc2)CC1` (centres unmarked): 1.66%.
The figure for `Cc1ccc(S(=O)(=O)Nc2ccc3nc(-c4cccn4C)[nH]c3c2)cc1` is -3.65%; for `CCOC(=O)C1C(=O)OC(C)(C)C1C(C)C(=O)c1ccc(C)cc1C` (centres unmarked) it is -1.34%.
The same measure for `COc1cc(C)c(S(=O)(=O)NCc2cccnc2)cc1C`: 14%; for `CC(=O)c1cccc(NC(=O)COC(=O)c2n[nH]c3ccccc23)c1`: 5.33%.
Turning to `Nc1ccc(C(=O)OCCCc2nc3cc4ccccc4cc3[nH]2)cc1`, the “hERG current change (%, negative = inhibition) at 1uM” value is listed as -4.16%.
The figure for `CCN(CC(=O)Nc1ccc(S(=O)(=O)N2CCCC2)cc1)CC(=O)Nc1cccc(OC)c1` is 28.2%; for `Cn1c(SCc2ccccc2Cl)nnc1-c1cnccn1` it is 14.6%.
Turning to `COc1cccc(OC)c1C(=O)N1CCN(c2c(Cc3ccccc3)c(C)nc3ncnn23)CC1`, the “hERG current change (%, negative = inhibition) at 1uM” value is listed as -1.17%.
The same measure for `Cc1ccccc1CNC(=O)CCC(=O)N1CCOc2ccccc21`: 8.29%; for `CC1(NC(=O)CCc2nc3ccccc3c(=O)[nH]2)CCS(=O)(=O)C1` (centres unmarked): 12.9%; for `COc1cc2cc(C#N)c(SCC(=O)Nc3cc(C)on3)nc2cc1OC`: 8.57%.
The figure for `COc1ccc(S(=O)(=O)N2CCC3(CC2)OCCN3S(=O)(=O)c2cccs2)cc1` is -1.95%; for `O=C(c1cccc(-c2ccccc2F)c1)N1CC[C@@H](N2CCC(O)CC2)[C@H](O)C1` it is -1.58%; for `Cc1cc(=O)[nH]c(NN=C2C3CC4CC(C3)CC2C4)n1` it is 5.42%.
For `CC(=O)c1cc(C#N)c(SCc2ccc(F)cc2)nc1C`, the “hERG current change (%, negative = inhibition) at 1uM” value stood at 11.7%.
The figure for `Cc1ccc(C23CC4CC(CC(CC(=O)NC(C)(C)CO)(C4)C2)C3)cc1` is 9.65%; for `CC(C)CN1C(=O)C(=O)N(CC(=O)NCc2ccc3c(c2)OCO3)C1=O` it is 9.96%; for `Cc1sc2c(c1C)c(=O)n(-c1cccc(C(F)(F)F)c1)c(=O)n2CC(=O)NCc1ccco1` it is 12.9%.
The same measure for `CC1CCCCC1n1c(=S)[nH]c2ccccc2c1=O` (centres unmarked): 5.93%.
